Reference: ChEMBL document CHEMBL1201862, “PubChem BioAssay data set” (2004)
Values joined by “and” are separate entries in the source; they are usually repeats but may differ in a detail not shown here. Equal values may be shown once.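 Cultured in 96-well plates, cells were exposed to test compound for 48 hours across five concentrations. At the GI50, growth is halved.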 Active and inactive are the calls of the source. Rule as the data show it: active = GI50 up to about 1.1 µM and inactive = higher.

tested on: NCI-H322M; experiment: inhibition of tumour cell growth, NCI panel, 48 h

SMILES	GI50
CCOc1cccc(-c2cc(O)c3cc4c(cc3n2)OCO4)c1	active: 0.603 µM
CC(C)N1CCN(c2ccncc2S(=O)(=O)N2CCCCC2)CC1	inactive: > 100 µM
Cc1ccnc(NS(=O)(=O)c2ccc(N=[N+]=[N-])cc2)n1	inactive: > 100 µM
Cn1/c(=N\N=C2\C=C3CCCCC3(C)CC2)sc2ccccc21 (centres undefined)	inactive: > 100 µM
CC(=O)NC1C(OCc2ccccc2)OC(CO)C(O)C1OCC(=O)N1CCCC1C(=O)NC(CCC(=O)NCCCCCNc1c2ccccc2nc2cccc([N+](=O)[O-])c12)C(N)=O (centres undefined)	active: 0.0288 µM
Cc1cc2c(cc1Cl)SC(N/N=C(\N)c1ccc(Cl)cc1)=NS2(=O)=O	inactive: 57.9 µM
CCCCC(C(=O)CCC(=O)Nc1ccc(Cl)cc1)C(=O)C(C)C (centres undefined)	inactive: > 100 µM
COc1cc2c(=O)cnoc2cc1O	inactive: > 100 µM
[C-]#[N+][C@@H]1C2[C@H](CC[C@@]1(C)O)C(=C)CC[C@@H]2[C@@]1(C)CC[C@H](Cl)C(C)(C)O1 (some centres undefined)	inactive: 7.62 µM
COC(=O)C(CCS(=O)(=O)CC(=O)C(=O)Nc1cccc(C(C)=O)c1)C(=O)OC	inactive: > 100 µM
COc1ccc2c3ccc4c(c3n(C)c2c1)C(=O)c1ccccc1C4=O	inactive: 48.2 µM
CNc1ncnc2c1ncn2C1C=CC(COS(N)(=O)=O)C1 (centres undefined)	inactive: > 100 µM
c1ccc(Cc2cc(-c3ccccc3)[nH]n2)cc1	inactive: 12.5 µM
C/C(=C\C(=O)O)C(=O)N(C)c1ccccc1I	inactive: > 100 µM
CC1CCCC(C(=O)CC2CC(=O)NC(=O)C2)C1=O (centres undefined)	inactive: > 100 µM
CC(O[Si](C)(C)C)C1C=CC(C)n2c(=O)n(-c3ccccc3)c(=O)n21 (centres undefined)	inactive: > 100 µM
COC(=O)CCc1cccnc1/C=N/O	inactive: > 100 µM
O=C(c1ccccc1)C1S(=O)(=O)OCCOS1(=O)=O	inactive: > 100 µM
N#CCCN(CCCCN(CCC#N)C(=O)Nc1ccccc1)C(=O)Nc1ccccc1	inactive: > 100 µM
COc1ccccc1NC(=O)C1=C(C)NC(C)=C(C(=O)Nc2ccccc2OC)C1c1ccccc1F	inactive: > 100 µM
O=[N+]([O-])c1ccc(-c2cc(O)c3nc4ccccc4n3c2)cc1	inactive: > 100 µM
CCCCCCCCCCCCCCCCCCNC(=S)N/C=C1\C(=O)Nc2ccccc2C1=O	inactive: 18.7 µM
O=c1oc2c(Cl)cc(Cl)cc2cc1C1=CSC2=NCCN12	inactive: 68.7 µM

SMILES	GI50
O=C(OCC(Cl)(Cl)Cl)N1CC[C@H](C2CCCCC2)C1	inactive: 17.5 µM
CCOc1ccc(-n2c(=O)c3nn4c(=O)n(-c5ccc(OCC)cc5)c(=O)c4nn3c2=O)cc1	inactive: > 100 µM
CCN(CC)CCCC(C)Nc1cc(/C=C/c2ccc(Cl)cc2)nc2cc(N(C)C)ccc12 (centres undefined)	inactive: 1.83 µM
CC12CC3c4ccccc4CN1C3(c1ccccc1)OC2=O (centres undefined)	inactive: > 100 µM
CCO/C([O-])=C(\C(=O)c1ccccc1)[n+]1c(C)sc2ccccc21	inactive: 29.2 µM
O=S(=O)(O)c1cc(S(=O)(=O)O)c2c(/N=N/c3ccc(/N=N/c4ccccc4)cc3)c(O)ccc2c1	inactive: > 100 µM
O=C(CSc1nnc(-c2ccccn2)s1)N/N=C/c1ccc([N+](=O)[O-])cc1	inactive: > 100 µM
CC1(C(=O)O)CCC[C@@]2(C)C1CC[C@@]1(C)c3cocc3CCC21 (some centres undefined)	inactive: > 100 µM
C=CC1(CCC(Br)C(C)(C)Cl)CO1 (centres undefined)	inactive: > 10 µM
OC(Cc1cc(CC(O)(C(F)(F)F)C(F)(F)F)nc(CC(O)(C(F)(F)F)C(F)(F)F)c1)(C(F)(F)F)C(F)(F)F	inactive: 2.81 µM
OCC(O)C(OC1OC(CO)C(O)C(O)C1O)c1nn(-c2ccccc2)c2nc3cc(Cl)c(Cl)cc3cc12 (centres undefined)	inactive: > 100 µM
O=C1CCC(=O)C(C(=O)CCC(=O)Nc2cccc(Cl)c2)C1 (centres undefined)	inactive: > 100 µM
CN(C)c1ccc(/C=N/c2ccc(-c3nc4ccccc4s3)cc2)cc1	inactive: 41.8 µM
CCc1cc(Cc2cc(Cl)c(NC(=O)C(=O)C3NC(=O)NC3=O)c(CC)c2)cc(Cl)c1NC(=O)C(=O)C1NC(=O)NC1=O (centres undefined)	inactive: 36.7 µM
CNC(=S)N/N=C/c1ccc([N+](=O)[O-])s1	inactive: > 10 µM
Cc1coc2c1C(OC(=O)C(C)C)C1(C)C(C)CCC(O)C1C2=O (centres undefined)	inactive: > 100 µM
OC(CC(CC(O)(C(F)(F)F)C(F)(F)F)=NN=C(CC(O)(C(F)(F)F)C(F)(F)F)CC(O)(C(F)(F)F)C(F)(F)F)(C(F)(F)F)C(F)(F)F	inactive: > 10 µM
O=[N+]([O-])c1cc(-c2nnc(S)[nH]2)ccc1O	inactive: > 100 µM
Nc1nc(Nc2ccccc2)sc1C(=O)c1ccc(Cl)cc1	inactive: 2.43 µM
COc1ccc(/N=N/C(=N/NC(=O)c2cc(Cl)ccc2C(=O)c2ccccc2)c2ccc(N(CCC#N)CCC#N)cc2C)cc1	inactive: 17.5 µM
CCOC1NC(=O)Oc2ccccc21 (centres undefined)	inactive: > 100 µM
Cc1cc(N(CCC#N)CCC#N)ccc1C(/N=N/c1ccc(C(=O)O)cc1)=N\NC(=O)c1ccccc1	inactive: 62.1 µM
Cc1ccc(S(=O)(=O)NC2CCCCO2)cc1 (centres undefined)	inactive: > 100 µM

SMILES	GI50
CC1(C)CC2C=C(C=O)C3(C=O)CC3(C)C2C1 (centres undefined)	inactive: 11.8 µM
C/C(=N\C1CCCCC1)c1ccccc1O	inactive: > 100 µM
CCCCCCCCCOC(=S)NCCCCC	inactive: 61.1 µM
C=CC/N=C1\N=C(C)C(C(=O)OCC)S1 (centres undefined)	inactive: > 100 µM
COC1C(OC(C)=O)CC(=O)OC(C)C/C=C/C=C\C(O)C(C)CC(CC=O)C1OC1OC(C)C(OC2CC(C)(O)C(OC(=O)CC(C)C)C(C)O2)C(N(C)C)C1O (centres undefined)	inactive: > 100 µM and inactive: 67.5 µM
O=c1[nH]c(=O)n(C2CC(O)C(CO)O2)cc1OS(=O)(=O)C(F)(F)F (centres undefined)	inactive: > 100 µM
COc1cccc(C=O)c1C(=O)c1cc(O)ccc1O	inactive: > 100 µM
CC1OC(OC2C(CO)OC(O[C@H]3CC[C@@]4(C)C(=CC[C@H]5[C@@H]6C[C@@H]7O[C@](O)(CC[C@@H](C)COC8OC(CO)C(O)C(O)C8O)[C@@H](C)[C@@H]7[C@@]6(C)CC[C@@H]54)C3)C(OC3OC(C)C(O)C(O)C3O)C2O)C(O)C(O)C1O (some centres undefined)	inactive: 2.83 µM
C=CCn1c(=O)c(-c2ccccc2)c(O)c2ccccc21	inactive: > 100 µM
CC1CC/C(=C\c2ccc(Cl)cc2)c2nc(N)c(C#N)c(-c3ccc(Cl)cc3)c21 (centres undefined)	inactive: > 100 µM
CNC(=O)c1cc(NC(=O)N(CCC#N)CCN(C(=O)N[C@@H](Cc2ccccc2)C(=O)N[C@@H](CC(C)C)C(=O)NC)c2ccccc2)ccc1OC	inactive: > 87.3 µM
O=C1C(CN2CCCC2)CCC1CN1CCCC1 (centres undefined)	inactive: > 100 µM
Nc1nc(Cl)cc(OCC2(CO)CCCC2)n1	inactive: > 100 µM
NCCCC(N/C=C1/N=C(c2ccccc2)OC1=O)C(=O)O (centres undefined)	inactive: > 100 µM
COc1cccc(/C=N/C(/N=C/c2cccc(OC)c2O)c2cccc(OC)c2O)c1O	active: 0.673 µM
CN(NC(=O)/C(=C\c1ccco1)NC(=O)c1ccccc1)c1cn[nH]c(=O)c1Cl	inactive: > 100 µM
CN(C)c1ccc(/C=N/c2ccc(Oc3ccc(Cl)cc3)c(Cl)c2)cc1	inactive: 19.1 µM
NNC(=O)CSc1nnc(CCCCCCCCc2nnc(SCC(=O)NN)o2)o1	inactive: > 100 µM
CC(=O)CC(=O)CCC(=O)Nc1cccc(C(F)(F)F)c1	inactive: > 100 µM
CC(=O)c1c(O)ccc2c1CC(CC=O)O2 (centres undefined)	inactive: > 100 µM
O=C(Nc1nccs1)NS(=O)(=O)n1cnc2ccccc21	inactive: > 100 µM
CC(=O)OC1C[C@@H](C)C2(C[C@H](O)c3ccoc3)C(=O)OC[C@]13C2CCC(O)C31CO1 (some centres undefined)	inactive: > 100 µM
Cc1nc2ccccc2c(=O)n1/N=C/c1ccc(N(C)C)cc1	inactive: > 100 µM

SMILES	GI50
Oc1cc(O)c(Oc2cccc(O)c2O)c(O)c1	inactive: > 100 µM
O=C(/C=C1\N=C(c2ccccc2)N(c2nc3c(Cl)cc(Cl)cc3s2)C1=O)/C=C/c1ccccc1	inactive: > 100 µM
C[C@]12CCC3c4ccc(OC(=O)c5ccccc5)cc4CC[C@H]3C1CC[C@@H]2OC(=O)C12OC1CCC2=O (some centres undefined)	inactive: 6.19 µM
COC(=O)C(C(=O)C(=O)Nc1cccc(OC)c1)c1cnc2ccccc2n1 (centres undefined)	inactive: > 100 µM
O=C(CCn1[nH]c(=O)c(Cl)c(Cl)c1=O)NO	inactive: > 100 µM
COc1ccc(CN2C(=O)[C@@H]3Cc4c(OC)c(C)c(OC)c(OC)c4[C@H](/C2=C\c2cc(OC)c(OC)c(C)c2OC)N3C(=O)OC(C)C)cc1	inactive: > 100 µM
CN(C)CCc1ccnc2nc(-c3ccc4ccccc4c3)cn12	inactive: > 100 µM
COC1C2c3ccccc3C(C#N)(Cc3ccc4c(c32)OCO4)N1C(=O)c1ccccc1 (centres undefined)	inactive: > 100 µM
O=C1NC(N2CCCCC2)=N/C1=C\c1ccccc1	inactive: > 100 µM
CC1=CC(=O)C(C(O)(C(F)(F)F)C(F)(F)F)C(C)(C)C1 (centres undefined)	inactive: > 10 µM
N#C/N=C(/N)c1sc2nc3c(c(-c4ccc(Br)cc4)c2c1N)CCCC3	inactive: 20.6 µM
COc1ccc(Cn2nc(OCc3ccccn3)c3cc([N+](=O)[O-])ccc32)cc1	inactive: > 100 µM
CC1=NCCc2cc3[nH]c4ccccc4c3cc21	inactive: 23.2 µM
CC(=O)C1=C(O)C(N)C2Cc3c(c(O)c4c(O)c(C)ccc4c3C)C(=O)C2(O)C1=O (centres undefined)	inactive: 2.01 µM
COC(=O)[C@@]12C(=O)C=CC(=O)[C@@H]1C1C(=CC2COC(C)=O)O[C@@H]2OC3(CCCCC3)O[C@H]12 (some centres undefined)	inactive: 17.7 µM
CC1=CCCC2C(C=O)(C1)CC(C)C2(CO)CC/C(=C/CO)CO (centres undefined)	inactive: > 100 µM
COc1ccc(/C(=C\c2cc(OC)c(OC)c(OC)c2)C(=O)O)cc1	inactive: 42.4 µM
CC[S+]([O-])C(=O)N(O)c1ccc(Cl)cc1 (centres undefined)	inactive: > 100 µM
C=C1C(=O)O[C@@H]2C[C@@H]3[C@]4(CC[C@]5(C)[C@@H]([C@H](C)CC/C=C(\C)C=O)CC[C@@]35C)C[C@]4(CCC(=O)OC)[C@H]12	inactive: 2.55 µM
O=C1Cc2c([nH]c3ccc(C(=O)O)cc23)-c2ccccc2N1	inactive: 5.37 µM
